The text below walks through data of PubChem BioAssay AID488969 (Vanderbilt High Throughput Screening Facility, 2010).

Over roughly 110,000 compounds, “z-score” has its median near -0.1; the highest 2% begin near 2. This is one part of the list. The source made the active and inactive calls.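 How the source made its calls: active means z-score in the third read window above 3 or below -3; inactive means the rest.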

This experiment addresses Metabotropic glutamate receptor 8 (Rattus norvegicus) (UniProt P70579). In words: rat mGluR8 modulators via GIRK flux, primary screen, cell-based, thallium flux, HTS (AID 488969). The settings on record: HEK293 rat mGluR8, GIRK (G protein-gated inwardly rectifying potassium channel) thallium flux, FluoZin2; at 10 µM; stronger effect = higher value; submaximal glutamate (EC20) added with thallium.
UniProt P70579, sequence (P70579 whole entry, looked up): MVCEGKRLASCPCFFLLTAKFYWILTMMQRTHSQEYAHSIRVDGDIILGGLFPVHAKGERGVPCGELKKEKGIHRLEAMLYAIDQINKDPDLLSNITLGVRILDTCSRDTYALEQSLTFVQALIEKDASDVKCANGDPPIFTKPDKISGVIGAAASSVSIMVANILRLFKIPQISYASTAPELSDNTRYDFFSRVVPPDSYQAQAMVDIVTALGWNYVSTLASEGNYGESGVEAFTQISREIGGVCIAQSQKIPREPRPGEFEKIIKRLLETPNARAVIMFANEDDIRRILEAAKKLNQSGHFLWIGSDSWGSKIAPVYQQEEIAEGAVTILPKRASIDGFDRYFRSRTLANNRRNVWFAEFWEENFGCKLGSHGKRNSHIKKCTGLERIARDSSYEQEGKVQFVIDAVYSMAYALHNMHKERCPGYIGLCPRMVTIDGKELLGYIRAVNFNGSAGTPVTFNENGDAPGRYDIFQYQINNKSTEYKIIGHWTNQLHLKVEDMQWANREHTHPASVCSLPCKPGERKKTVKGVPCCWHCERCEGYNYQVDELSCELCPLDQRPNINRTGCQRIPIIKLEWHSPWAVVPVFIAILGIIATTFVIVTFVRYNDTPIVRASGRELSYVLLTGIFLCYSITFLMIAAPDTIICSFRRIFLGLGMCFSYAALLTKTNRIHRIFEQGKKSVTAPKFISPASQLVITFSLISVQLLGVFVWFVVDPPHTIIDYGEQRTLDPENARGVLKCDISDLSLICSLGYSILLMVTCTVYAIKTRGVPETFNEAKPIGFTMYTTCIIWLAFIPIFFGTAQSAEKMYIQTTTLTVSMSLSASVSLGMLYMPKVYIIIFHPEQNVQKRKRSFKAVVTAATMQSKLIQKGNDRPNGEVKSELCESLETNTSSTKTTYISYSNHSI
`CCn1cc(C2=NOC(C(=O)Nc3cc(OC)c(Cl)cc3OC)C2)c(C)n1` (stereo not drawn) displayed a z-score of -0.703.

Compound `O=C(c1ccco1)N1CCN(S(=O)(=O)c2cccc(C(F)(F)F)c2)CC1` had a z-score of 0.151.

`Cn1c(=O)n(/N=C/c2ccccc2)c2ccccc21`: the z-score was 0.0704.

`CCN1CCN(C(=O)CS(=O)Cc2nc(-c3ccc(OC)cc3)oc2C)CC1` (stereo not drawn): the z-score was -0.122.

For `CC(C)c1ccccc1NC(=O)COC(=O)/C=C/c1cccc([N+](=O)[O-])c1`, the z-score was active: 5.9.

`C=CCN1C(=O)C(O)(CC(=O)c2c(C)n[nH]c2C)c2cc(Br)ccc21` (stereo not drawn): the z-score is -0.0393.

Compound `O=C(NCC(=O)N(Cc1ccco1)C(C(=O)NC1CCCC1)c1ccncc1)c1cccs1` (stereo not drawn) showed a z-score of -0.236.

In the case of `COC(=O)CNC(=O)c1ccccc1[N+](=O)[O-]`, the z-score is -0.154.

For the compound `CC(C)(C)NS(=O)(=O)c1cc(C(=O)Nc2sccc2C#N)ccc1Cl`, the z-score was -0.214.

`Cc1ccccc1CN(c1ccc(C(=O)N2CCCC2)cc1)S(C)(=O)=O` had a z-score of -0.101.

`O=C(CSc1ncn[nH]1)Nc1cccc2ccccc12` registered a z-score of 0.0743.

For `CC#CCCCC(=O)Nc1cc(OC)nc(OC)n1`, the z-score was -0.0455.

Take `COCCn1c(=S)[nH]c2cc(C(=O)N3CCN(c4ccccc4OC)CC3)ccc2c1=O`: the z-score is -0.495.

`COc1cc2c(c(OC)c1)C(c1cccc(OC)c1OC)CC(=O)N2` (stereo not drawn) gave a z-score of -1.8.

Turning to `Cc1cccc(C)c1NC(=O)N1CCC(n2cnc3ccccc32)CC1`, the z-score is -0.0892.

`CN(C)CCNC(=O)/C=N/O` displayed a z-score of 0.333.

For the compound `COc1cccc(C(=O)Nc2c(F)c(F)c(F)c(F)c2F)c1`, the z-score is -0.711.

The compound `Cc1cc(NC(=O)COC(=O)CCC(=O)c2ccc(F)cc2)no1` displayed a z-score of -0.305.

With `O=C(Cn1nc(C(F)(F)F)cc1C1CC1)NCc1ccccc1F`, the z-score is -0.325.

For `CC(C)NC(=O)CSCc1cccc(Br)c1`, the z-score was -0.385.

The compound `Cn1c(=O)c(C(=O)NCCO)c(O)c2ccccc21` displayed a z-score of -0.135.

The compound `CCOCCCNC(=O)C(NC(=O)c1ccc(=O)[nH]c1)c1ccccc1` (stereo not drawn) yielded a z-score of 1.17.

With `CCCOc1ccc2ccccc2c1/C=N/n1c(C)nnc1-n1nc(C)cc1C`, the z-score was -1.98.

Compound `O=C(Nc1nccs1)c1cc2sccc2n1Cc1ccc(F)cc1` displayed a z-score of -0.691.

For the compound `CCOc1cccc2sc(NC(=O)CC)nc12`, the z-score was found to be 0.0368.

Take `C=CCNc1nc(-c2ccccc2)c(C(=O)OCC)cc1C#N`: the z-score is -0.303.

The compound `Cc1cccc(C(=O)NNC(=O)CCC(=O)Nc2cccc(Cl)c2C)c1` yielded a z-score of -0.102.

`O=C1CCCN1CCNC(=S)Nc1ccccc1` registered a z-score of -0.127.

For the compound `Cc1ccccc1C(=O)Nc1cccc(NC(=O)c2ccc(-c3ccc(Br)cc3)o2)c1`, the z-score was -0.485.

The compound `O=C(O)CC(=O)Nc1cc(Cl)ccc1O` showed a z-score of 0.845.

`COc1ccc(CCNC(=O)c2cc(-c3ccc(Cl)c(Cl)c3)oc2C)cc1`: the z-score is -0.22.

Take `CCN(CC)c1ncn(Cc2c(Cl)cccc2Cl)c2ncnc1-2`: the z-score is -0.869.

`CC(=O)NC1=NC(=O)C(C)S1` (stereo not drawn) gave a z-score of -0.291.

The compound `COc1ccc(S(=O)(=O)N2CCC(C(N)=O)CC2)c2ccccc12` registered a z-score of -0.165.

`Cc1nn2c(N3CCN(C(=O)c4ccco4)CC3)cc(C(C)(C)C)nc2c1-c1ccccc1` came in with a z-score of -0.282.

Compound `COc1ccc2c(c1)CCc1c(C(=O)Nc3ccc(OC)c(OC)c3)noc1-2` registered a z-score of 0.697.

In turn, `O=C(NCCc1ccccc1)c1oc2ccccc2c1COc1ccccc1` returned a z-score of -0.293.

In the case of `CCc1nnc(NC(=O)c2ccc3c(c2)C(=O)N(CC)C3=O)s1`, the z-score was -0.0701.

`Cc1c(N2C(=O)c3ccc(F)cc3C2=O)c(=O)n(-c2ccccc2)n1C` registered a z-score of 0.0127.

Compound `Oc1cccc(C(=S)N2CCN(Cc3ccccc3)CC2)c1` came in with a z-score of 0.262.

Regarding `Fc1ccc(CN(Cc2ccccc2)C(c2cccs2)c2nnnn2C2CCCCC2)cc1` (stereo not drawn), the z-score was -0.638.

`NCC/C=C1/c2ccccc2CSc2ccccc21` came in with a z-score of 1.44.

`CC12CC3CC(C)(C1)CC(CN)(C3)C2` yielded a z-score of 0.604.

For the compound `Cc1ccc(-n2c(SCC(=O)NCCN3C(=O)CSC3=O)nnc2-c2ccccc2)cc1`, the z-score turned out to be 0.0356.

As for `CCOC(=O)C1=c2/c(=C/c3ccccc3OC)c(N)c(C#N)n2C(=O)C(c2ccccc2OC)S1` (stereo not drawn), the z-score was -0.49.

`CC(C)(C)c1ccc(C(=O)C=[N+]=[N-])cc1`: the z-score was -0.371.

`O=C1c2ccccc2C(=O)N1c1cccnc1` returned a z-score of 0.138.

As for `Cc1ccccc1NC(=O)c1ccccc1`, the z-score is 0.686.

Take `Cc1ccc(-c2nnn(CC(=O)N(Cc3ccc(F)cc3)C(C(=O)NC3CCCC3)c3ccncc3)n2)o1` (stereo not drawn): the z-score was -0.423.

`CCOC(=O)c1cn2cccnc2n1` displayed a z-score of 0.35.

Take `COc1ccc(C2SCC(=O)N2CC23CC4CC(CC(C4)C2)C3)cc1` (stereo not drawn): the z-score is -0.23.

The compound `COc1ccccc1NC(=O)CSc1nncn1-c1cccnc1` registered a z-score of -0.0905.

`CC1=C(C(=O)Nc2ccccn2)C(c2ccc(Br)cc2)n2ncnc2N1` (stereo not drawn) returned a z-score of -0.306.

In turn, `O=C(Nc1ncccc1Cl)c1cccc(F)c1` yielded a z-score of -0.272.

In turn, `O=C1CCC(C(=O)OCC(=O)C23CC4CC(CC(C4)C2)C3)N1` (stereo not drawn) returned a z-score of 0.988.

On to `CCOc1ccc(NC(=O)C(c2ccccn2)N(C(=O)CCl)c2ccc(F)cc2)cc1` (stereo not drawn), for which the z-score amounted to 0.0895.

Compound `Cc1cc(SCC(=O)NC(=O)NCc2ccco2)nc2ccccc12` had a z-score of -0.269.

Regarding `Cc1onc(-c2c(F)cccc2Cl)c1C(=O)Nc1nnc(-c2ccccc2)s1`, the z-score was -0.429.

For `Cc1sc2nc(COC(=O)CNC(=O)c3ccc(C(C)(C)C)cc3)[nH]c(=O)c2c1C`, the z-score is -0.282.

The compound `CSc1nc(C)cc(C)c1S(=O)(=O)c1ccccc1C` had a z-score of -0.374.

`Cn1c(=O)c2cn(-c3ccc4c(c3)OCCO4)cc2n(C)c1=O` registered a z-score of 0.592.

In turn, `Cc1ccc(NC(=S)NNC(=O)C2CC2c2ccc(C)cc2)cc1` (stereo not drawn) gave a z-score of 1.64.

`O=C(O)CCCC(=O)N1N=C(c2ccccc2)CC1c1ccc2nccnc2c1` (stereo not drawn) came in with a z-score of 0.221.

The compound `CCN(CC)CCCNC(=O)c1cc(-c2cccc(Cl)c2)on1` had a z-score of 2.64.

On to `O=C(NC1CCCC1)c1cnc2n(c1=O)CCS2`, for which the z-score is -0.474.

With `O=C(Cc1ccc(-n2cccc2)cc1)NCc1cccs1`, the z-score is -0.575.

Consider `COc1ccc(CCN2C(=NC(=O)CC(C)C)SC3CS(=O)(=O)CC32)cc1` (stereo not drawn), for which the z-score came out at 0.0119.

`COc1ccc(-n2c(SCC(=O)Nc3sc4c(c3C#N)CCCC4)nnc2-c2ccccc2OC)cc1`: the z-score was -0.898.

`COc1cccc(C(=O)Nc2ccc(NC(=O)C(C)(C)C)cn2)c1` had a z-score of 0.0192.

Compound `Cc1cc(NC(=O)c2ccc(F)cc2)n(CCOC(=O)c2ccc(F)cc2)n1` showed a z-score of -0.0704.

In turn, `O=C(OCC(=O)N1CCc2ccccc21)c1cccnc1Cl` had a z-score of 0.118.

Compound `O=C(COc1ccccc1O)Nc1ccc(Cl)cc1` yielded a z-score of -0.0165.

In turn, `COCCNS(=O)(=O)c1ccc2c(c1)oc(=O)c1cc(S(=O)(=O)NCCOC)ccc12` returned a z-score of 0.353.

With `COC(=O)c1ccc(C(=O)OC)c(NC(=O)Oc2ccccc2)c1`, the z-score is -0.285.

`Cc1cc(C(F)(F)F)n(-c2nc(C(=O)NNS(=O)(=O)c3ccccc3)cs2)n1`: the z-score is 0.622.

`COc1ccccc1OCCOc1ccc(/C=C2/C(=N)N3OC(C)=CC3=NC2=O)cc1OC` came in with a z-score of -0.177.

The compound `CC1CCCCN1CCn1c(=S)[nH]c2ncccc2c1=O` (stereo not drawn) had a z-score of 1.22.

The compound `Fc1cc(F)c(F)c(SCCc2ccncc2)c1F` registered a z-score of -0.679.

In turn, `CC(C)=NOC(=O)c1ccc(-c2ccccc2)cc1` yielded a z-score of -0.0217.

`Cn1c(=O)[nH]c(=O)c2c1nc(N1CCCC1)n2CC(O)COc1ccccc1` (stereo not drawn) came in with a z-score of -0.304.

For the compound `CCC1(CC)C(=O)C(C)(C)C(=O)OC1c1cccs1` (stereo not drawn), the z-score was -0.0259.

Compound `CCOC(=O)C1CCN(C(=O)Nc2ccc3snnc3c2)CC1` registered a z-score of -0.867.

On to `COc1cc2c(=O)n(CC3CCCO3)c(=O)n(CC(=O)Nc3cccc(Cl)c3)c2cc1OC` (stereo not drawn), for which the z-score was -0.197.

The compound `O=C(NCc1ccccn1)/C(=N/O)c1ccccc1` yielded a z-score of -0.962.

For `COc1cc(CO)cc(Br)c1OCC(=O)O`, the z-score was found to be 1.44.

As for `O=S(=O)(c1cccs1)N1CCN(Cc2ccccc2)CC1`, the z-score is -0.34.

`O=C(c1ccc(COc2ccc(Cl)cc2)o1)N1CCN(Cc2ccc3c(c2)OCO3)CC1`: the z-score is 0.601.

Compound `CCOC(CNc1c([N+](=O)[O-])c(=O)n(C)c(=O)n1C)OCC` registered a z-score of -0.287.

Compound `Cc1c(C(=O)N(C)C)sc(NC(=O)c2cc([N+](=O)[O-])cc([N+](=O)[O-])c2)c1C#N` registered a z-score of -0.153.

For `Cc1nn(-c2ccccc2)c(C)c1/C=N/NC(=O)c1cc(-c2ccccc2)n[nH]1`, the z-score was -0.451.

As for `O=C(Nc1ccccc1C(F)(F)F)N1CCN(C(c2ccccc2)c2ccccc2)CC1`, the z-score is -0.492.

Take `COC(=O)c1ccccc1NC(=O)Cn1c(-c2nonc2N)nc2ccccc21`: the z-score is 0.233.

In the case of `O=C(NCC(=O)N(Cc1ccco1)C(C(=O)NC1CCCCC1)c1cccnc1)c1cccs1` (stereo not drawn), the z-score came to 0.277.

`c1ccc(-c2n[nH]c3c2CCC3)cc1` yielded a z-score of -0.528.

The compound `CN(C)CCC1Sc2ccccc2Oc2ccccc21` (stereo not drawn) displayed a z-score of 1.77.

`CN1C(=O)C(O)(CC(=O)/C=C/C=C/c2ccccc2)c2ccccc21` (stereo not drawn) showed a z-score of 0.0047.

The compound `Cc1ccc(CN2CCN(C(=O)C3CCCO3)CC2)cc1` (stereo not drawn) came in with a z-score of -0.195.

As for `COC(=O)C(C)(C)ONC(=O)Nc1ccccc1`, the z-score is -0.0433.

In turn, `CCOc1ncccc1C(=O)OCC(=O)Nc1c(C)cc(C)cc1C` gave a z-score of -0.13.

Regarding `Cc1ccc(NC(=O)CN(C)C(=O)CCOc2cccc(C)c2)cc1`, the z-score was -0.0456.

As to `COc1ccc2nc(NC(=O)CNS(=O)(=O)c3cccs3)sc2c1`, the z-score came to 0.961.

`O=C(CNC(=O)c1ccc(S(=O)(=O)N2CCCC2)cc1)N/N=C/c1ccccc1`: the z-score is -0.345.

Turning to `O=C(NCc1ccccn1)c1cc2ccccc2oc1=O`, the z-score was determined as 0.513.

`O=C1CC(c2ccccc2)n2ncnc2N1` (stereo not drawn) registered a z-score of 0.0831.

`COc1ccc(C(C(=O)NC2CCCCC2)N(CC2CCCO2)C(=O)C2COc3ccccc3O2)cc1OC` (stereo not drawn) yielded a z-score of -0.167.

Turning to `Cn1c(C(O)c2ccc3c(c2)OCO3)nc2ccccc21` (stereo not drawn), the z-score came out at 0.102.

Compound `CCSC1=N/C(=C\c2ccc(C)s2)C(=O)S1` displayed a z-score of -1.31.

`COc1ccc2c(C(=O)CN3CCN(CCO)CC3)c[nH]c2c1` showed a z-score of -0.118.

`CCOC(=O)NC(c1cccc(Cl)c1)C1CCCCCC1=O` (stereo not drawn) displayed a z-score of -0.163.

`COc1ccc(CCCC(=O)NCc2ccccc2)cc1C` displayed a z-score of -0.246.

For the compound `CCC1(C)N([O-])C(C)=C(c2ccccc2)[N+]1=O` (stereo not drawn), the z-score was -0.263.

Take `O=C(Oc1c(Br)cc(C(=S)N2CCOCC2)cc1Br)c1ccc(Cl)cc1`: the z-score is -0.0247.

The compound `CC1=Nc2nc(N3CCCCC3)c(C#N)c3c4c(nc(c23)N1)N(c1ccc(C(C)C)cc1)C(=O)C4` registered a z-score of -0.0128.
